Source: the supplement of paper PMC8728848
This is one part of the list.

Experiments:
Assay in all cases: glycan array binding signal (z-score within array); higher = stronger binding
Settings in all cases: glycan notation: IUPAC condensed, linker removed
GlcNAc(b1-4)GlcNAc = molecular target: GlcNAc(b1-4)GlcNAc
Outline: (§1)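 From the Consortium for Functional Glycomics database, 3228 arrays were curated, keeping only those whose protein sequence was available. Binding is given as a within-array Z-score averaged across arrays sharing a protein sequence and across linkers. Negative Z-scores can be read as non-binding.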

[1] = molecular target: GlcNAc(b1-4)GlcNAc(b1-4)GlcNAc
Outline: as §1

[2] = molecular target: GlcNAc(b1-4)GlcNAc(b1-4)GlcNAc(b1-4)GlcNAc(b1-4)GlcNAc
Outline: as §1

[3] = molecular target: GlcNAc(b1-4)GlcNAc(b1-4)GlcNAc(b1-4)GlcNAc(b1-4)GlcNAc(b1-4)GlcNAc
Outline: as §1

[4] = molecular target: GlcNAc(b1-4)[GlcNAc(b1-6)]GalNAc
Outline: as §1

[5] = molecular target: GlcNAc(b1-6)Gal(b1-4)GlcNAc
Outline: as §1

GlcNAc(b1-6)GalNAc = molecular target: GlcNAc(b1-6)GalNAc
Outline: as §1

GlcNAc3Prop(b1-4)GlcNAc = molecular target: GlcNAc3Prop(b1-4)GlcNAc
Outline: as §1

[6] = molecular target: GlcNAc6S(b1-3)Gal(b1-4)GlcNAc
Outline: as §1

Kdn(a2-3)Gal(b1-3)GalNAc = molecular target: Kdn(a2-3)Gal(b1-3)GalNAc
Outline: as §1

Kdn(a2-3)Gal(b1-3)GlcNAc = molecular target: Kdn(a2-3)Gal(b1-3)GlcNAc
Outline: as §1

Kdn(a2-3)Gal(b1-4)Glc = molecular target: Kdn(a2-3)Gal(b1-4)Glc
Outline: as §1

Kdn(a2-3)Gal(b1-4)GlcNAc = molecular target: Kdn(a2-3)Gal(b1-4)GlcNAc
Outline: as §1

[7] = molecular target: Kdn(a2-3)Gal(b1-4)[Fuc(a1-3)]GlcNAc
Outline: as §1

Kdn(a2-6)Gal(b1-4)GlcNAc = molecular target: Kdn(a2-6)Gal(b1-4)GlcNAc
Outline: as §1

[8] = molecular target: Man(a1-2)Man(a1-2)Man(a1-3)Man
Outline: as §1

[9] = molecular target: Man(a1-2)Man(a1-2)Man(a1-6)[Man(a1-3)]Man
Outline: as §1

Man(a1-2)Man(a1-3)Man = molecular target: Man(a1-2)Man(a1-3)Man
Outline: as §1

[10] = molecular target: Man(a1-2)Man(a1-3)[Man(a1-2)Man(a1-6)]Man
Outline: as §1

[11] = molecular target: Man(a1-2)Man(a1-3)[Man(a1-2)Man(a1-6)]Man(a1-6)[Man(a1-2)Man(a1-2)Man(a1-3)]Man
Outline: as §1

[12] = molecular target: Man(a1-2)Man(a1-3)[Man(a1-2)Man(a1-6)]Man(a1-6)[Man(a1-2)Man(a1-2)Man(a1-3)]Man(b1-4)GlcNAc(b1-4)GlcNAc
Outline: as §1

[13] = molecular target: Man(a1-2)Man(a1-3)[Man(a1-6)]Man(a1-6)[Man(a1-2)Man(a1-3)]Man(b1-4)GlcNAc(b1-4)GlcNAc
Outline: as §1

[14] = molecular target: Man(a1-2)Man(a1-6)[Man(a1-3)]Man(a1-6)[Man(a1-2)Man(a1-2)Man(a1-3)]Man
Outline: as §1

[15] = molecular target: Man(a1-2)Man(a1-6)[Man(a1-3)]Man(a1-6)[Man(a1-2)Man(a1-2)Man(a1-3)]Man(b1-4)GlcNAc(b1-4)GlcNAc
Outline: as §1

Man(a1-3)[Man(a1-6)]Man = molecular target: Man(a1-3)[Man(a1-6)]Man
Outline: as §1

[16] = molecular target: Man(a1-3)[Man(a1-6)]Man(a1-6)[Man(a1-2)Man(a1-3)]Man(b1-4)GlcNAc(b1-4)GlcNAc
Outline: as §1

[17] = molecular target: Man(a1-3)[Man(a1-6)]Man(a1-6)[Man(a1-3)]Man
Outline: as §1

[18] = molecular target: Man(a1-3)[Man(a1-6)]Man(a1-6)[Man(a1-3)]Man(b1-4)GlcNAc(b1-4)GlcNAc
Outline: as §1

[19] = molecular target: Man(a1-3)[Man(a1-6)]Man(b1-4)GlcNAc(b1-4)GlcNAc
Outline: as §1

Man(a1-6)Man = molecular target: Man(a1-6)Man
Outline: as §1

Man(b1-4)GlcNAc = molecular target: Man(b1-4)GlcNAc
Outline: as §1

Neu5Ac(a2-3)Gal = molecular target: Neu5Ac(a2-3)Gal
Outline: as §1

[20] = molecular target: Neu5Ac(a2-3)Gal(b1-3)GalNAc
Outline: as §1

[21] = molecular target: Neu5Ac(a2-3)Gal(b1-3)GalNAc(b1-3)Gal(a1-4)Gal(b1-4)Glc
Outline: as §1

[22] = molecular target: Neu5Ac(a2-3)Gal(b1-3)GalNAc(b1-3)Gal(b1-4)GlcNAc
Outline: as §1

[23] = molecular target: Neu5Ac(a2-3)Gal(b1-3)GalNAc(b1-4)[Neu5Ac(a2-3)]Gal(b1-4)Glc
Outline: as §1

[24] = molecular target: Neu5Ac(a2-3)Gal(b1-3)GalNAc6S
Outline: as §1

[25] = molecular target: Neu5Ac(a2-3)Gal(b1-3)GlcNAc
Outline: as §1

[26] = molecular target: Neu5Ac(a2-3)Gal(b1-3)GlcNAc(b1-3)Gal(b1-3)GlcNAc
Outline: as §1

[27] = molecular target: Neu5Ac(a2-3)Gal(b1-3)GlcNAc6S
Outline: as §1

[28] = molecular target: Neu5Ac(a2-3)Gal(b1-3)[Fuc(a1-4)]GlcNAc
Outline: as §1

[29] = molecular target: Neu5Ac(a2-3)Gal(b1-3)[Fuc(a1-4)]GlcNAc(b1-3)Gal(b1-3)[Fuc(a1-4)]GlcNAc
Outline: as §1

[30] = molecular target: Neu5Ac(a2-3)Gal(b1-3)[Fuc(a1-4)]GlcNAc(b1-3)Gal(b1-4)[Fuc(a1-3)]GlcNAc
Outline: as §1

[31] = molecular target: Neu5Ac(a2-3)Gal(b1-3)[Neu5Ac(a2-3)Gal(b1-4)]GlcNAc
Outline: as §1

[32] = molecular target: Neu5Ac(a2-3)Gal(b1-3)[Neu5Ac(a2-6)]GalNAc
Outline: as §1

Neu5Ac(a2-3)Gal(b1-4)Glc = molecular target: Neu5Ac(a2-3)Gal(b1-4)Glc
Outline: as §1

[33] = molecular target: Neu5Ac(a2-3)Gal(b1-4)GlcNAc
Outline: as §1

[34] = molecular target: Neu5Ac(a2-3)Gal(b1-4)GlcNAc(b1-2)Man(a1-3)[GlcNAc(b1-2)Man(b1-4)GlcNAc(b1-2)Man(a1-6)]Man(b1-4)GlcNAc(b1-4)GlcNAc
Outline: as §1

[35] = molecular target: Neu5Ac(a2-3)Gal(b1-4)GlcNAc(b1-2)Man(a1-3)[Neu5Ac(a2-6)Gal(b1-4)GlcNAc(b1-2)Man(a1-6)]Man(b1-4)GlcNAc(b1-4)GlcNAc
Outline: as §1

[36] = molecular target: Neu5Ac(a2-3)Gal(b1-4)GlcNAc(b1-3)Gal(b1-3)GlcNAc
Outline: as §1

[37] = molecular target: Neu5Ac(a2-3)Gal(b1-4)GlcNAc(b1-3)Gal(b1-4)GlcNAc
Outline: as §1

[38] = molecular target: Neu5Ac(a2-3)Gal(b1-4)GlcNAc(b1-3)Gal(b1-4)GlcNAc(b1-3)Gal(b1-4)GlcNAc
Outline: as §1

[39] = molecular target: Neu5Ac(a2-3)Gal(b1-4)GlcNAc(b1-3)Gal(b1-4)[Fuc(a1-3)]GlcNAc
Outline: as §1

[40] = molecular target: Neu5Ac(a2-3)Gal(b1-4)GlcNAc(b1-3)GalNAc
Outline: as §1

[41] = molecular target: Neu5Ac(a2-3)Gal(b1-4)GlcNAc(b1-6)[Gal(b1-3)]GalNAc
Outline: as §1

[42] = molecular target: Neu5Ac(a2-3)Gal(b1-4)GlcNAc(b1-6)[Neu5Ac(a2-3)Gal(b1-3)]GalNAc
Outline: as §1

[43] = molecular target: Neu5Ac(a2-3)Gal(b1-4)GlcNAc6S
Outline: as §1

B1: GALT1 115 D492A (Arabidopsis thaliana), Q8L7F9 (protein)
chain: DPMRGSHHHHHHGMASMTGGQQMGRDLYDDDDKSRLQKPYITAAASVVVTPNTTLPMEWLRITLPDFMKEARNTQEAISGDDIAVVSGLFVEQNVSKEEREPLLTWNRLESLVDNAQSLVNGVDAIKEAGIVWESLVSAVEAKKLVDVNENQTRKGKEELCPQFLSKMNATEADGSSLKLQIPCGLTQGSSITVIGIPDGLVGSFRIDLTGQPLPGEPDPPIIVHYNVRLLGDKSTEDPVIVQNSWTASQDWGAEERCPKFDPDMNKKVDDLDECNKMVGGEINRTSSTSLQSNTSRGVPVAREASKHEKYFPFKQGFLSVATLRVGTEGMQMTVDGKHITSFAFRDTLEPWLVSEIRITGDFRLISILASGLPTSEESEHVVDLEALKSPTLSPLRPLDLVIGVFSTANNFKRRMAVRRTWMQYDDVRSGRVAVRFFVGLHKSPLVNLELWNEARTYGDVQLMPFVDYYSLISWKTLAICIFGTEVDSAKFIMKTDDAAFVRVDEVLLSLSMTNNTRGLIYGLINSDSQPIRNPDSKWYISYEEWPEEKYPPWAHGPGYIVSRDIAESVGKLFKEGNLKMFKLEDVAMGIWIAELTKHGLEPHYENDGRIISDGCKDGYVVAHYQSPAEMTCLWRKYQETKRSLCCREW
With B1 the “glycan array binding signal (z-score)” value (GlcNAc(b1-4)GlcNAc) was -0.112, the “glycan array binding signal (z-score)” value [1] was -0.041 and the “glycan array binding signal (z-score)” value [2] was -0.2. The “glycan array binding signal (z-score)” value [3] was -0.17, the “glycan array binding signal (z-score)” value [4] was -0.307 and the “glycan array binding signal (z-score)” value [5] was -0.065. For the same binder, the “glycan array binding signal (z-score)” value (GlcNAc(b1-6)GalNAc) was 0.202, the “glycan array binding signal (z-score)” value (GlcNAc3Prop(b1-4)GlcNAc) was -0.256 and the “glycan array binding signal (z-score)” value [6] was -0.344. The “glycan array binding signal (z-score)” value (Kdn(a2-3)Gal(b1-3)GalNAc) was 0.03, the “glycan array binding signal (z-score)” value (Kdn(a2-3)Gal(b1-3)GlcNAc) was 0.815 and the “glycan array binding signal (z-score)” value (Kdn(a2-3)Gal(b1-4)Glc) was -0.153. For the same binder, the “glycan array binding signal (z-score)” value (Kdn(a2-3)Gal(b1-4)GlcNAc) was 0.127, the “glycan array binding signal (z-score)” value [7] was -0.228 and the “glycan array binding signal (z-score)” value (Kdn(a2-6)Gal(b1-4)GlcNAc) was -0.152. The “glycan array binding signal (z-score)” value [8] was 0.15, the “glycan array binding signal (z-score)” value [9] was 0.111 and the “glycan array binding signal (z-score)” value (Man(a1-2)Man(a1-3)Man) was -0.159. For the same binder, the “glycan array binding signal (z-score)” value [10] was -0.381, the “glycan array binding signal (z-score)” value [11] was 0.198 and the “glycan array binding signal (z-score)” value [12] was -0.311. The “glycan array binding signal (z-score)” value [13] was -0.242, the “glycan array binding signal (z-score)” value [14] was -0.093 and the “glycan array binding signal (z-score)” value [15] was -0.076. For the same binder, the “glycan array binding signal (z-score)” value (Man(a1-3)[Man(a1-6)]Man) was -0.244, the “glycan array binding signal (z-score)” value [16] was 0.404 and the “glycan array binding signal (z-score)” value [17] was -0.092. For the same binder, the “glycan array binding signal (z-score)” value [18] was -0.151, the “glycan array binding signal (z-score)” value [19] was -0.126 and the “glycan array binding signal (z-score)” value (Man(a1-6)Man) was -0.266. The “glycan array binding signal (z-score)” value (Man(b1-4)GlcNAc) was 0.076, the “glycan array binding signal (z-score)” value (Neu5Ac(a2-3)Gal) was -0.088 and the “glycan array binding signal (z-score)” value [20] was -0.216. The “glycan array binding signal (z-score)” value [21] was 0.159, the “glycan array binding signal (z-score)” value [22] was 0.353 and the “glycan array binding signal (z-score)” value [23] was -0.335. The “glycan array binding signal (z-score)” value [24] was -0.122, the “glycan array binding signal (z-score)” value [25] was -0.243 and the “glycan array binding signal (z-score)” value [26] was -0.166. For the same binder, the “glycan array binding signal (z-score)” value [27] was -0.323, the “glycan array binding signal (z-score)” value [28] was -0.288 and the “glycan array binding signal (z-score)” value [29] was -0.269. For the same binder, the “glycan array binding signal (z-score)” value [30] was -0.321, the “glycan array binding signal (z-score)” value [31] was -0.145 and the “glycan array binding signal (z-score)” value [32] was -0.17. The “glycan array binding signal (z-score)” value (Neu5Ac(a2-3)Gal(b1-4)Glc) was -0.401, the “glycan array binding signal (z-score)” value [33] was -0.047 and the “glycan array binding signal (z-score)” value [34] was -0.194. For the same binder, the “glycan array binding signal (z-score)” value [35] was -0.045, the “glycan array binding signal (z-score)” value [36] was -0.104 and the “glycan array binding signal (z-score)” value [37] was -0.147. The “glycan array binding signal (z-score)” value [38] was -0.289, the “glycan array binding signal (z-score)” value [39] was -0.212 and the “glycan array binding signal (z-score)” value [40] was -0.152. For the same binder, the “glycan array binding signal (z-score)” value [41] was -0.271, the “glycan array binding signal (z-score)” value [42] was -0.27 and the “glycan array binding signal (z-score)” value [43] was -0.078.
